Measured values: article PMC4336329 (PLoS ONE, 2015)
Out of some 310,000 compounds screened, about 2,200 (0.71%) showed an effect of 50% or more. Effects have a minus sign here. Some of the results follow.

These molecules were tested against human ether-à-go-go-related gene (hERG) potassium channel (human, UniProt Q12809) (assay: primary screen, population patch clamp on CHO cells stably expressing hERG).
Chain of human ether-à-go-go-related gene (hERG) potassium channel (Q12809 whole entry, looked up): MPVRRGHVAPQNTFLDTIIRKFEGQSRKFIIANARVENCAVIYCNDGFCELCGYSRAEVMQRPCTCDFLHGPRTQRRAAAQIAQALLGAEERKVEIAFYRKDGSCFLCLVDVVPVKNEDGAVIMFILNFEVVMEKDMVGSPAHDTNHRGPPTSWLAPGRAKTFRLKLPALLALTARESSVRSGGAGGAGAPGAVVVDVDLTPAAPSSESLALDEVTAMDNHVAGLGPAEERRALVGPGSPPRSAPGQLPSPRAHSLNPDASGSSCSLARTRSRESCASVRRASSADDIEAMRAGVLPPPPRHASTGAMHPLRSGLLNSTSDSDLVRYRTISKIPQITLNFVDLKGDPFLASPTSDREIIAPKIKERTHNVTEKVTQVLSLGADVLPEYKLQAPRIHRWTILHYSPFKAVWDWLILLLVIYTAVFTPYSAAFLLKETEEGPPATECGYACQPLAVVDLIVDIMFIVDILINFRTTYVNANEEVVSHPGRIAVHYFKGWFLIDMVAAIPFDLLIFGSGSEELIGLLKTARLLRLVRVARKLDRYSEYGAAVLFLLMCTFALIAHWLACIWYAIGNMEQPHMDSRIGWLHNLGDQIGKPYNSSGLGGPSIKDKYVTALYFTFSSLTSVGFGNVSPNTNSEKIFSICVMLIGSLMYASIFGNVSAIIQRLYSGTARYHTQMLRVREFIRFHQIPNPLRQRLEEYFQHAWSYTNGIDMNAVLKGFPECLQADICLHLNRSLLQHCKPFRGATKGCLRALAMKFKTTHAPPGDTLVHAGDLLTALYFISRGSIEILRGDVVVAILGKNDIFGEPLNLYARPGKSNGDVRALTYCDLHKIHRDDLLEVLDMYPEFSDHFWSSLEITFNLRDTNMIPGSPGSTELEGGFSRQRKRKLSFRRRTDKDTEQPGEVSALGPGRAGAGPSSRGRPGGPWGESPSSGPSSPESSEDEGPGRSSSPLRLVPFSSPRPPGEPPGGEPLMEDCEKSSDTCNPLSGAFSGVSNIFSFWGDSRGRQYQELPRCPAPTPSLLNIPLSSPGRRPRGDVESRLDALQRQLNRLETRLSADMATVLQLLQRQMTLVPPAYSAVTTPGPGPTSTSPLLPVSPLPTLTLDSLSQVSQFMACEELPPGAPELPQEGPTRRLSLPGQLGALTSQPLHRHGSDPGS

SMILES | hERG current change (%, negative = inhibition) at 1uM
COc1cc(C2OCC3C(c4cc(OC)c(OC)c(OC)c4)OCC23)cc(OC)c1OC (stereo not drawn) | 11.8%
O=C(N/N=C/c1ccc(N2CCOCC2)cc1)c1ccc(NS(=O)(=O)c2cccs2)cc1 | 10.6%
Br.O=C(CNc1ccc(F)cc1)c1ccccc1 | 14.6%
CN1CCN(NC(=O)c2cc(S(=O)(=O)Nc3ccc(Cl)cc3)ccc2Cl)CC1.Cl | 10.3%
Cc1ccc(Cl)cc1NC(=O)N[C@@H](C)C(=O)O | 9.9%
COc1cc(/C=N/NC(=O)c2ccc(NC(=O)C3CC3)cc2)ccc1OC(C)=O | 5.98%
COc1cccc(/C=C2\SC(=O)N(CCC(=O)N3CCC(C(=O)O)CC3)C2=O)c1 | 9.22%
Cc1cccc(NC(=S)NC(=O)c2ccc(Br)o2)c1 | 12.7%
CCCNS(=O)(=O)c1ccc(OCC(=O)N2CCCC2)cc1 | 11.7%
CCOc1ccccc1OCCNC1CCCC1 | 9.35%
COc1ccc(CCNS(=O)(=O)c2cccc([N+](=O)[O-])c2)cc1 | -2.95%
CCCC(c1nnnn1C1CCCC1)N1CCN(c2ccccc2F)CC1.Cl (stereo not drawn) | 1.94%
CSc1ccccc1OCc1cc(C(=O)NC2CCOC(C)(C)C2)no1 (stereo not drawn) | 11.9%
O=C(Nc1nccs1)c1ccc(Cl)c(S(=O)(=O)N2CCCCC2)c1 | 6.8%
COc1ccc(C(=O)NCc2cc(C)nc3ccccc23)cc1OC | 13.1%
Cc1ccccc1OCC(=O)NS(=O)(=O)c1ccc(Cl)cc1 | 12.3%
CC(=O)Nc1cccc(OCCCOc2ccc([N+](=O)[O-])cc2)c1 | 11.1%
O=C(Nc1cccc(F)c1)c1ccco1 | 14.1%
CCOCN(C(=O)Cn1c(C(C)O)nc2ccccc21)c1c(C)cccc1CC (stereo not drawn) | 10.7%

SMILES | hERG current change (%, negative = inhibition) at 1uM
CCCCNc1nc2c(c(=O)n(Cc3ccccc3)c(=O)n2C)n1C | 14.5%
Cc1ccc(NS(=O)(=O)c2ccc(Cl)c(C(=O)O)c2)cc1S(=O)(=O)N1CCOCC1 | 9.78%
CCCOC(=O)c1ccc(NC(=O)CCOc2ccccc2)cc1 | -0.614%
O=C(NC1=NCCS1)c1sc2ccccc2c1Cl | 11.8%
O=c1[nH]c(/C=C/c2ccccc2F)nc2ccccc12 | 12.4%
Cc1ccc(C(=O)N/C(=C\c2cccs2)C(=O)NCCCn2ccnc2)cc1C | -32.3%
Cc1ccc2c(c1)CCCN2C(=O)c1ccncc1 | 8.11%
S=c1[nH]nc(CCCc2n[nH]c(=S)o2)o1 | 12.5%
O=C(Cc1noc2ccccc12)Nc1ccc2ccccc2c1 | 10.9%
COc1ccc(NC(=O)COC(=O)c2c(-c3ccccc3)noc2C)cc1 | 0.158%
O=S(=O)(N1CCCCC1)N1CCN(c2cc(Cl)ccc2Cl)CC1 | 15.6%
COc1cc2sc3ccc(C#Cc4ccccn4)cc3c(=O)c2cc1OC | 8.36%
COc1ccc([C@H]2CC(=O)C=C(c3cccc(C(F)(F)F)c3)C2)cc1 | 14.9%
O=C(NC12CC3CC(CC(C3)C1)C2)c1cc2nc(-c3ccco3)cc(C(F)(F)F)n2n1 | 6.67%
COc1ccc(C2=Nc3cc(C)ccc3OC2)cc1 | 18%
COC(=O)Nc1ccc(C)c2nsnc12 | -0.405%
Cc1nc2sc(C(c3cccs3)N3CCN(c4cccc(Cl)c4)CC3)c(O)n2n1 (stereo not drawn) | 4.26%
Cc1c(NC(=O)C(C)Sc2nc(N)cc(=O)[nH]2)c(=O)n(-c2ccccc2)n1C (stereo not drawn) | 14.5%
N#C/C(=C/c1ccc2c(c1)OCO2)C(=O)Nc1ccc(O)cc1 | 5.9%

SMILES | hERG current change (%, negative = inhibition) at 1uM
CC1=C(C(=O)OCc2ccccc2)C(c2ccc3ccccc3c2)NC(=O)N1CCCCCC(=O)O (stereo not drawn) | 17.2%
CS(=O)(=O)Nc1ccc(C2=NN(S(=O)(=O)c3ccc(F)cc3)C(c3ccco3)C2)cc1 (stereo not drawn) | -15.6%
CCN(c1ccc(NC(=O)COC(=O)c2cc3ccccc3oc2=O)cc1)C(C)C | 6.56%
CC(OC(=O)c1cccc(NS(C)(=O)=O)c1)C(=O)Nc1ccc(N2CCOCC2)cc1 (stereo not drawn) | 11.9%
CCSc1nnc(NC(=O)c2ccccc2C)s1 | 8.78%
CSc1nnc(Cn2c(=O)sc3ccccc32)n1-c1ccccc1C | 11.8%
CC(=O)CCc1ccc(OC(=O)c2cccnc2)cc1 | 14.5%
COCCn1c(SCC(=O)c2ccccc2)nc2ccccc2c1=O | -0.334%
COC(=O)c1ccc(COC(=O)CCC(=O)c2cccs2)cc1 | -7.81%
C=CCn1c(=O)c(C=Nc2c(OC)cccc2[N+](=O)[O-])c(O)n(CCCC)c1=O | -7.14%
COc1ccc(C(CNC(=O)c2oc3ccc(Br)cc3c2C)N2CCCCC2)cc1 (stereo not drawn) | 10.6%
COc1cc(NC(=O)CSc2nc(C)c(C)c(C)n2)cc(OC)c1 | 11.8%
Cn1cc(/C=C(\NC(=O)c2ccccc2Cl)C(=O)N2CCOCC2)c2ccccc21 | 16%
CCOC(=O)c1c(NC(=O)CSc2nnc(-c3cccnc3)o2)sc2c1CCC2 | 0.0604%
O=C1/C(=C/c2ccccc2[N+](=O)[O-])COc2ccccc21 | 11.1%
COc1cc(C(=S)NCc2ccccc2)cc(Br)c1O | 9.88%
O=C(c1ccccc1Cl)N1CCc2ccccc2C1 | 3.39%
Cc1ccc(C)n1-c1cc([N+](=O)[O-])ccc1-n1ccnc1 | -0.734%
C[C@]12CC[C@@H]3c4ccc(OS(=O)(=O)[O-])cc4CC[C@H]3[C@@H]1CCC2=O.[K+] | 19.5%
